Source: PubChem BioAssay AID1345083 (National Center for Advancing Translational Sciences (NCATS), 2018)
In all, about 94,000 compounds went through this assay and about 6,200 (6.6%) were called active. This list was built around the results that the source calls inconclusive (neither active nor inactive); the mix of calls is not that of the screen. Calls come from the whole dose curve; as a rule, active = well fitted inhibition curve with a large enough effect; inconclusive = small, poorly fitted or top-dose-only effect; inactive = flat fitted curve, though single readings scatter. Potencies of inconclusive entries are doubtful fits and often do not repeat.

test: Cytotoxic Profiling in HEK 293 Cell Line of Diverse Libraries Using Quantitative High-Throughput Screening; conditions: HEK 293 viability, ATP luminescence (CellTiter-Glo), 48-72 h; series mostly up to 115 µM; note: nearly all actives have a fitted effect of over 60% in size
How it was run: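 HEK 293 cells seeded at 250 cells/well were exposed to compound for 48 or 72 hr at 37 degree Celsius. Viability taken as ATP content by CellTiter-Glo luminescence.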
Potency is the fitted concentration of half-maximal effect; tags give direction and shape of the fitted curve.

Structure (SMILES)	Potency
CCN1C(=O)CCN(Cc2cn(C)c3ccc(OC)cc23)CC12CCOCC2	inconclusive: 28.2 µM [inhibitor, full curve, poor fit]
Cc1ccccc1-c1noc(-c2ccc(NC(C)c3cnn(C)c3)nc2)n1 (centres undefined)	active: 31.6 µM
O=C(c1ccccc1)N1CCC2(CC1)NC(=O)N(Cc1ccccc1)C2=O	inactive
CC(C)NC(=O)C1CCC(=O)N1C1CCN(C(=O)c2ccc3c(c2)OCO3)CC1 (centres undefined)	inconclusive: 100 µM [inhibitor, single point]
O=C(Nc1ccc2c(N3CCOCC3)ncnc2c1)c1ccccc1C(F)(F)F	inconclusive: 8.91 µM [inhibitor, full curve, poor fit]
Cc1ccc(-c2cc(C(=O)NCCCc3ccccc3)c3cnn(C)c3n2)cc1	inactive
O=C(CCc1ccccc1)N1CCC(Oc2cnc3c(ccn3-c3cncnc3)c2)CC1	inconclusive: 50.1 µM [inhibitor, partial curve, poor fit]
Cc1ccsc1C(=O)NC1CCCN(c2cc(-c3ccccc3)[nH]n2)C1 (centres undefined)	inconclusive: 56.2 µM [inhibitor, partial curve, poor fit]
CCOc1ccc(NC(=O)Cn2cccc2-c2nc(-c3ccc(F)cc3)no2)cc1	inactive
Cc1nc(C)c(C(=O)N2CCC(Oc3ccc(-c4noc(-c5ccccc5)n4)cc3)C2)s1 (centres undefined)	inconclusive: 10 µM [inhibitor, full curve, poor fit]
CC(C)C(=O)N1Cc2ccccc2CC2(CCCN(Cc3ccccn3)C2)C1 (centres undefined)	inactive
CCC[C@H]1CN(C(=O)CCc2ccccc2C)C[C@@H]1N	inactive
COCCNC(=O)C1CCCN(c2nccc(Nc3ccc(C)cc3)n2)C1 (centres undefined)	inconclusive: 44.7 µM [inhibitor, partial curve, poor fit]
CCCC(O)CN1CCC(=O)N(Cc2ccccc2)Cc2cc(F)ccc21 (centres undefined)	active: 79.4 µM
N#Cc1cccc(CN2CCOC[C@H]2c2ncc(-c3ccc(Cl)s3)[nH]2)c1	inconclusive: 56.2 µM [inhibitor, partial curve, poor fit]
Cc1nnc2ccc(N3CCC(NC(=O)c4ccc(Cl)cc4)C3)nn12 (centres undefined)	inconclusive: 89.1 µM [inhibitor, single point]
COc1ccc(CN2CCC3(C2)C(=NC2CCCC2)NC(=O)N3c2cc(F)cc(F)c2)cc1 (centres undefined)	inconclusive: 79.4 µM [inhibitor, partial curve]
CCOc1ccccc1CNC(=O)c1c(C)sc2ccn(CC(C)C)c(=O)c12	inconclusive: 50.1 µM [inhibitor, partial curve, poor fit]
COc1ccccc1-c1nnc2ccc(C(=O)NCC(C)C)cn12	inactive
COc1ccccc1NC(=O)N1CC(C(=O)N(C)C)C2(CCOCC2)C1 (centres undefined)	inactive
O=C(Nc1cccc(Cl)c1)C1CCCCN1Cc1ccc(-c2cccs2)cc1 (centres undefined)	active: 28.2 µM
COc1cccc(CC(=O)N2CCC(c3n[nH]c(=O)n3-c3ccccc3)CC2)c1	inactive

Structure (SMILES)	Potency
O=C1[C@@H]2C[C@@H](O)CN2C2(CN(Cc3ccccc3)C2)C(=O)N1Cc1ccccc1F	inactive
CC(=O)N1CCN(c2nc3c(s2)CC(C(=O)Nc2cc(Cl)ccc2F)CC3)CC1 (centres undefined)	active: 39.8 µM
O=C(Nc1cnc(-c2ccc(Cl)cc2)nc1)c1ccccc1Cl	inconclusive: 35.5 µM [inhibitor, full curve, poor fit]
O=C(NC1CCN(c2cc(-c3ccc(Cl)cc3)[nH]n2)C1)c1ccc(Br)o1 (centres undefined)	active: 35.5 µM
Cc1nn(-c2ccccc2)c2c1C(C1CC1)N(C1CCN(Cc3ccccc3Cl)CC1)C2=O (centres undefined)	inactive
O=C(NCc1cccc(Cl)c1)c1cnc2c(c1)N(C(=O)Cc1ccc(O)cc1)CCC2	inconclusive: 100 µM [inhibitor, partial curve]
Cc1cc(C2CC(C(=O)NCc3cccc(F)c3)CN(C(=O)C3CC3)C2)ccc1F (centres undefined)	inconclusive: 89.1 µM [inhibitor, single point]
CO[C@H]1C(=O)N(C(C)C)[C@H]1C1CCN(S(=O)(=O)c2ccc3c(c2)CCC3)CC1	inconclusive: 56.2 µM [inhibitor, partial curve, poor fit]
O=C(CCCc1ccccc1)N1C[C@H]2CNC(=O)[C@]23CCCC[C@@H]13	inconclusive: 50.1 µM [inhibitor, partial curve, poor fit]
N#Cc1cccc(C(=O)NC2CCN(c3cc(-c4ccc(F)cc4)[nH]n3)C2)c1 (centres undefined)	active: 44.7 µM
COc1ccc(CC2CCN(C(=O)c3c(C)noc3-c3ccc4c(c3)OCO4)CC2)cc1	active: 35.5 µM
CC(=O)Nc1ccc(CN2C[C@@H](F)[C@@H](OCc3nc4cc(C)c(C)cc4[nH]3)C2)cc1	inconclusive: 100 µM [inhibitor, partial curve, poor fit]
COCCOC(=O)N1CCC(Oc2cnc3c(ccn3-c3cncnc3)c2)CC1	inconclusive: 112 µM [inhibitor, single point]
CCNC(=O)N(C)Cc1cccc(N2CCN([S+](=O)([O-])c3c(Cl)cccc3Cl)CC2)c1F	inconclusive: 50.1 µM [inhibitor, partial curve, poor fit]
COc1ccc(-c2cc(N3CCC(NC(=O)c4cc(Cl)ccc4F)CC3)n[nH]2)cc1	inconclusive: 35.5 µM [inhibitor, full curve, poor fit]
FC(F)(F)c1ccc(CN2CCC3(CC(c4cccc(C(F)(F)F)c4)=NO3)C2)cc1 (centres undefined)	inconclusive: 50.1 µM [inhibitor, partial curve, poor fit]
CCN1C[C@H]2COc3ccccc3[C@H]2N(C(=O)c2ccc(C)cc2)CCC1=O	inconclusive: 79.4 µM [inhibitor, partial curve, poor fit]
COC[C@H]1CCCN1Cc1nc(C2(O)CCN(C)CC2)cs1	inactive
COCCN1CC(CO)C2(CCN(C(=O)COc3ccccc3)CC2)C1 (centres undefined)	inconclusive: 44.7 µM [inhibitor, partial curve, poor fit]
Cc1nn2c(c1-c1cccnc1N1CCOCC1)N(CC1CC1)CCC2	inconclusive: 25.1 µM [inhibitor, full curve, poor fit]
O=C([C@H]1C[C@H](Oc2ccccc2)CN1C(=O)C1CCCC1)N1CCOCC1	inconclusive: 50.1 µM [inhibitor, partial curve, poor fit]
Cc1cc(C(=O)NCC2CCCN(Cc3nnc(-c4cccnc4)o3)C2)no1 (centres undefined)	inactive

Structure (SMILES)	Potency
CN(C)C(=O)N1CCC(C(=O)N2CCC(c3nc4ncccc4[nH]3)CC2)C1 (centres undefined)	inactive
C#CCNC(=O)[C@@H]1Cc2cn(CC=C)c3cccc(c23)[C@H](CC(C)C)N1	inconclusive: 100 µM [inhibitor, partial curve, poor fit]
CC(=O)N1CCC2(CC1)CCN(c1ncccc1C#N)CC2CO (centres undefined)	inactive
Cc1ccc(-n2cccc2CC(=O)NC(C)(C)C)cc1	inconclusive: 100 µM [inhibitor, single point]
COc1cccc(CNC(=O)c2nc3cccnc3n(C3CCCCC3)c2=O)c1	inconclusive: 50.1 µM [inhibitor, partial curve, poor fit]
CC1CCN(C(=O)c2ccccc2OCC2CCCN(Cc3ccncc3F)C2)CC1 (centres undefined)	inconclusive: 100 µM [inhibitor, single point]
Cc1cc(C)cc(-c2ccc(CN3CCCC(N[S+](=O)([O-])c4cccc(C(F)(F)F)c4)C3)cc2)c1 (centres undefined)	inconclusive: 35.5 µM [inhibitor, full curve, poor fit]
CN(C)Cc1cn(C[C@H]2C[C@@H](NC(=O)Nc3ccc4c(c3)OCCO4)[C@H](O)[C@@H]2O)nn1	inactive
CC1=Nc2cc(C(=O)NCCCN(C)C)ccc2Sc2ccc(Cl)cc21	active: 25.1 µM
CC(C)N(Cc1cn(Cc2ccccc2)nc1-c1cc2ccccc2o1)CC1CCC(=O)N1 (centres undefined)	inactive
Fc1ccccc1-c1nnc([C@H]2CCN(Cc3cccc(Cl)c3)C2)o1	inconclusive: 112 µM [inhibitor, single point]
CN1[C@@H](CCC(=O)N2CCN(c3ccccn3)CC2)CNC(=O)[C@@H]2[C@H]1CCN2Cc1cccs1	inconclusive: 89.1 µM [inhibitor, single point]
CCC1=C(C(=O)OC)C(c2ccccc2)N2C(CC(=O)N3CCOCC3)=CSC2=N1 (centres undefined)	inconclusive: 89.1 µM [inhibitor, single point]
O=C(C1CC1)N1CCC2(CC1)CC(=O)N(c1ccccc1)c1ccccc1O2	inconclusive: 89.1 µM [inhibitor, single point]
CN(C)c1nc2c(c(=O)[nH]1)CCN(C(=O)C(c1ccccc1)C1CCCC1)C2 (centres undefined)	inconclusive: 89.1 µM [inhibitor, single point]
CSc1cccc(NC(=O)Cn2c(-c3ccc(Cl)cc3)nc(C)c(CCO)c2=O)c1	active: 31.6 µM
COc1ccccc1C(O)c1nc(Nc2ccc(C(C)C)cc2)n[nH]1 (centres undefined)	active: 100 µM
N#Cc1ccccc1CN1CCNc2nc(CNCc3ccccc3)n(Cc3ccccc3)c2C1=O	inconclusive: 3.55 µM [inhibitor, full curve, poor fit]
COc1ccc(-c2noc(-c3nnn4c3COC(c3ccc(F)cc3)C4)n2)cc1F (centres undefined)	inconclusive: 89.1 µM [inhibitor, single point]
O=C1c2cnc(-c3cccc(C(F)(F)F)c3)nc2OCCN1CC1CC1	inconclusive: 50.1 µM [inhibitor, full curve, poor fit]
